The other results are listed elsewhere or left out.

This test concerns the target T1, MBP-FoxP1dN (Mus musculus, UniProt P58462 326-579).
T1 sequence: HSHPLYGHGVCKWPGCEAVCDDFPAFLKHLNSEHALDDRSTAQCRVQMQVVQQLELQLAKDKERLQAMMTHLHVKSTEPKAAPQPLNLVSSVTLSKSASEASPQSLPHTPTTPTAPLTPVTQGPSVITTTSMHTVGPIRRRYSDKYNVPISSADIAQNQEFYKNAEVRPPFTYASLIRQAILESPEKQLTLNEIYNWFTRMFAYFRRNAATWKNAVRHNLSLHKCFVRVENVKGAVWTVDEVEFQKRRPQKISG
Put plainly: PD-seq (MBP pull-down with sequencing); 20 mM Tris-HCl pH 7.5, 100 mM NaCl, 1.5 mM MgCl2, 0.4 uM protein, 0.1 uM dsDNA library, 30 min, room temperature, amylose pull-down; high values mean tight binding. Particulars: protein: recombinant; tags: His6-MBP; chain copies: 2; dsDNA, one strand shown. The method, boiled down: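 A fragment of mouse FoxP3 or FoxP1 without its N-terminus, carrying a His6-MBP tag and produced in E. coli, was combined at 0.4 µM with a 0.1 µM degenerate double-stranded DNA library filled in with Klenow. The mixture sat for 30 min at room temperature in Tris pH 7.5 buffer containing NaCl and MgCl2. Protein–DNA complexes were captured on amylose resin, washed three times, and the DNA was freed with proteinase K, barcoded by PCR and sequenced on Illumina. Binding is expressed as reads-per-million enrichment of pull-down over input, with replicates pooled.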
As to “GATGATTGTTCTCCCAGCTGATGAATTGTTCTGCTCGAGTAAACAAATTTTCCTAATCTTTCTGTTCAAGCGCCATCTAC”, the binding signal was 1.09 RPM ratio (pull-down/input).

“GATGATTGTTCTCCCAGCTGATGAATTCGCTAGGTCGAGTAAACAAATTTTCCTAATCTTTCTGTTCAAGCGCCATCTAC”: the binding signal was 0.797 RPM ratio (pull-down/input).

Take “GATGATTGTTCTCCCAGCTGATGAATTCACAGTTTCGAGTAAACAAATTTTCCTAATCTTTCTGTTCAAGCGCCATCTAC”: the binding signal was 0.889 RPM ratio (pull-down/input).

On to “GATGATTGTTCTCCCAGCTGATGAATTATAGACCTCGAGTAAACAAATTTTCCTAATCTTTCTGTTCAAGCGCCATCTAC”, for which the binding signal is 0.856 RPM ratio (pull-down/input).

For “GATGATTGTTCTCCCAGCTGATGAATTGTGCCCTTCGAGTAAACAAATTTTCCTAATCTTTCTGTTCAAGCGCCATCTAC”, the binding signal is 1.05 RPM ratio (pull-down/input).

As to “GATGATTGTTCTCCCAGCTGATGAATTCTCTTGCTCGAGTAAACAAATTTTCCTAATCTTTCTGTTCAAGCGCCATCTAC”, the binding signal was 0.822 RPM ratio (pull-down/input).

In the case of “GATGATTGTTCTCCCAGCTGATGAATTATGCATGTCGAGTAAACAAATTTTCCTAATCTTTCTGTTCAAGCGCCATCTAC”, the binding signal was 1.18 RPM ratio (pull-down/input).

Regarding “GATGATTGTTCTCCCAGCTGATGAATTTTCCGAATCGAGTAAACAAATTTTCCTAATCTTTCTGTTCAAGCGCCATCTAC”, the binding signal is 0.938 RPM ratio (pull-down/input).

On to “GATGATTGTTCTCCCAGCTGATGAATTTTGGTGGTCGAGTAAACAAATTTTCCTAATCTTTCTGTTCAAGCGCCATCTAC”, for which the binding signal is 0.921 RPM ratio (pull-down/input).

Take “GATGATTGTTCTCCCAGCTGATGAATTGCGCGGATCGAGTAAACAAATTTTCCTAATCTTTCTGTTCAAGCGCCATCTAC”: the binding signal was 1.02 RPM ratio (pull-down/input).

Regarding “GATGATTGTTCTCCCAGCTGATGAATTGAGTACGTCGAGTAAACAAATTTTCCTAATCTTTCTGTTCAAGCGCCATCTAC”, the binding signal is 0.879 RPM ratio (pull-down/input).

As for “GATGATTGTTCTCCCAGCTGATGAATTGAGGTTTTCGAGTAAACAAATTTTCCTAATCTTTCTGTTCAAGCGCCATCTAC”, the binding signal was 0.978 RPM ratio (pull-down/input).

For the sequence “GATGATTGTTCTCCCAGCTGATGAATTGTGAAATTCGAGTAAACAAATTTTCCTAATCTTTCTGTTCAAGCGCCATCTAC”, the binding signal was 1.08 RPM ratio (pull-down/input).

On to “GATGATTGTTCTCCCAGCTGATGAATTCTTTTGATCGAGTAAACAAATTTTCCTAATCTTTCTGTTCAAGCGCCATCTAC”, for which the binding signal is 0.969 RPM ratio (pull-down/input).

As to “GATGATTGTTCTCCCAGCTGATGAATTTTACTTATCGAGTAAACAAATTTTCCTAATCTTTCTGTTCAAGCGCCATCTAC”, the binding signal was 1.07 RPM ratio (pull-down/input).

As to “GATGATTGTTCTCCCAGCTGATGAATTTAATAACTCGAGTAAACAAATTTTCCTAATCTTTCTGTTCAAGCGCCATCTAC”, the binding signal is 0.971 RPM ratio (pull-down/input).

“GATGATTGTTCTCCCAGCTGATGAATTAACGCTATCGAGTAAACAAATTTTCCTAATCTTTCTGTTCAAGCGCCATCTAC”: the binding signal was 0.961 RPM ratio (pull-down/input).

On to “GATGATTGTTCTCCCAGCTGATGAATTAGGATAATCGAGTAAACAAATTTTCCTAATCTTTCTGTTCAAGCGCCATCTAC”, for which the binding signal is 1.2 RPM ratio (pull-down/input).

As to “GATGATTGTTCTCCCAGCTGATGAATTTCGTTATTCGAGTAAACAAATTTTCCTAATCTTTCTGTTCAAGCGCCATCTAC”, the binding signal was 1.01 RPM ratio (pull-down/input).

On to “GATGATTGTTCTCCCAGCTGATGAATTCAATCGGTCGAGTAAACAAATTTTCCTAATCTTTCTGTTCAAGCGCCATCTAC”, for which the binding signal was 0.861 RPM ratio (pull-down/input).

Consider “GATGATTGTTCTCCCAGCTGATGAATTAGTTCCGTCGAGTAAACAAATTTTCCTAATCTTTCTGTTCAAGCGCCATCTAC”, for which the binding signal is 0.958 RPM ratio (pull-down/input).

As to “GATGATTGTTCTCCCAGCTGATGAATTAATCGGGTCGAGTAAACAAATTTTCCTAATCTTTCTGTTCAAGCGCCATCTAC”, the binding signal is 0.746 RPM ratio (pull-down/input).

Consider “GATGATTGTTCTCCCAGCTGATGAATTCGTTAGCTCGAGTAAACAAATTTTCCTAATCTTTCTGTTCAAGCGCCATCTAC”, for which the binding signal was 0.868 RPM ratio (pull-down/input).

Regarding “GATGATTGTTCTCCCAGCTGATGAATTCTGAGTGTCGAGTAAACAAATTTTCCTAATCTTTCTGTTCAAGCGCCATCTAC”, the binding signal is 0.844 RPM ratio (pull-down/input).

For the sequence “GATGATTGTTCTCCCAGCTGATGAATTAGCGGCCTCGAGTAAACAAATTTTCCTAATCTTTCTGTTCAAGCGCCATCTAC”, the binding signal was 0.849 RPM ratio (pull-down/input).

On to “GATGATTGTTCTCCCAGCTGATGAATTACCCACGTCGAGTAAACAAATTTTCCTAATCTTTCTGTTCAAGCGCCATCTAC”, for which the binding signal was 0.972 RPM ratio (pull-down/input).

“GATGATTGTTCTCCCAGCTGATGAATTCGAAATGTCGAGTAAACAAATTTTCCTAATCTTTCTGTTCAAGCGCCATCTAC”: the binding signal was 0.844 RPM ratio (pull-down/input).

In the case of “GATGATTGTTCTCCCAGCTGATGAATTAACATCTTCGAGTAAACAAATTTTCCTAATCTTTCTGTTCAAGCGCCATCTAC”, the binding signal was 1.06 RPM ratio (pull-down/input).

On to “GATGATTGTTCTCCCAGCTGATGAATTTAGAAGTTCGAGTAAACAAATTTTCCTAATCTTTCTGTTCAAGCGCCATCTAC”, for which the binding signal was 0.9 RPM ratio (pull-down/input).

For the sequence “GATGATTGTTCTCCCAGCTGATGAATTTGTCGCGTCGAGTAAACAAATTTTCCTAATCTTTCTGTTCAAGCGCCATCTAC”, the binding signal was 1.07 RPM ratio (pull-down/input).

Turning to “GATGATTGTTCTCCCAGCTGATGAATTCGGTACGTCGAGTAAACAAATTTTCCTAATCTTTCTGTTCAAGCGCCATCTAC”, the binding signal is 0.885 RPM ratio (pull-down/input).

The values are drawn from publication PMC12820563, “FoxP3 forms a head-to-head dimer in vivo and stabilizes its multimerization on adjacent microsatellites”.
